5 molecules from publication PMC2933890 can be followed below.

Amino acid sequences for entries named in this document (tags omitted).
UniProt Q15554: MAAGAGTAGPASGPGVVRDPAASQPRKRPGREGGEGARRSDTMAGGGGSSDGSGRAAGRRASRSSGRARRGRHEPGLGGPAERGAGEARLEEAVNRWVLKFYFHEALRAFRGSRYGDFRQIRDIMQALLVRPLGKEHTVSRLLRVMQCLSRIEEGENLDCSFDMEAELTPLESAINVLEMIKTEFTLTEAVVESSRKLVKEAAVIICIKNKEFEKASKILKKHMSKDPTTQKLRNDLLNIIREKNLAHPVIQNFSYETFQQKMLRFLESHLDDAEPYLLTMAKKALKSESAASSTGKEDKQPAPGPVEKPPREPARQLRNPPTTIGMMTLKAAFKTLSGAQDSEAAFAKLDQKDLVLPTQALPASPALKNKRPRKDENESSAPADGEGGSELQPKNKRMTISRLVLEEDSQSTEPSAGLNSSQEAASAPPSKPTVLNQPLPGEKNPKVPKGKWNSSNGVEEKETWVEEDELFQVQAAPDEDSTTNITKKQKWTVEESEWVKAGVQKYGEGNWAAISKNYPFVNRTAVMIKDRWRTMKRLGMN
UniProt P54274: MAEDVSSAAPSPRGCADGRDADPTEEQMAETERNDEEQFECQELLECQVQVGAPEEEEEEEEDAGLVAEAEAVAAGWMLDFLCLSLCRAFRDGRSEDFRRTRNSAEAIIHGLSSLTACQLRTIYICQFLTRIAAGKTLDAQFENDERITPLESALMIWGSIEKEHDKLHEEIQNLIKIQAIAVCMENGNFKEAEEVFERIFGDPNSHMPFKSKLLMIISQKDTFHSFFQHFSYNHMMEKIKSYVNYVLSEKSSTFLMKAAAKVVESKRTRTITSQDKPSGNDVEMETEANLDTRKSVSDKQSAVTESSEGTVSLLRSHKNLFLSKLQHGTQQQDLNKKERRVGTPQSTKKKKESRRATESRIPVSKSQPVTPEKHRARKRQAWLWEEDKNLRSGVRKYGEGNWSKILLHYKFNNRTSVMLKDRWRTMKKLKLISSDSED

No constants are given. Whether binding was seen depends on the method and setting. For some assays here: Binding seen in cells or lysates may run through a third protein. Some binding calls cover weakened binding; strength is not graded here. Where a sequence is shown, tags or fusion partners need not be part of it.

One test addresses T1, LexA-POT1∆C (human) (UniProt Q9NUX5).
T1 sequence: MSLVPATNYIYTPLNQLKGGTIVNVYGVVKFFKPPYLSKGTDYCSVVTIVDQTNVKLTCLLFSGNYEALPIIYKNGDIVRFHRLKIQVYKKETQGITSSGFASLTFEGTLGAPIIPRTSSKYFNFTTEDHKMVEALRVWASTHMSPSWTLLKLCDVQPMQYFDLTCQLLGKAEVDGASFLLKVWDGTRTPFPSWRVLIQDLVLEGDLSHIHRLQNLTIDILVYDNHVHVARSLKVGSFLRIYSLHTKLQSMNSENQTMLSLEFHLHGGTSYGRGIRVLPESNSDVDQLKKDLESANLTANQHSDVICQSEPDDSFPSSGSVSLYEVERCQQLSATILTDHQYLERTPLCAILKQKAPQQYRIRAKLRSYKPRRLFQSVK
In words: two-hybrid; yeast strain L40, LexA DNA binding domain baits, GAL4 activation domain preys, HIS3 and LacZ reporters (His phenotype, patch LacZ, liquid β-Gal assays).

In test [1] the target is TRF2 (endogenous) (human (endogenous in HTC75)) (UniProt Q15554). Put plainly: co-IP; data not shown; coprecipitation of POT1 or TRF2 with wild-type TRIP6 or TRIP6-NES.
Test [2] addresses T2, POT1 (endogenous) (human (endogenous in HTC75)) (UniProt Q9NUX5).
T2 sequence: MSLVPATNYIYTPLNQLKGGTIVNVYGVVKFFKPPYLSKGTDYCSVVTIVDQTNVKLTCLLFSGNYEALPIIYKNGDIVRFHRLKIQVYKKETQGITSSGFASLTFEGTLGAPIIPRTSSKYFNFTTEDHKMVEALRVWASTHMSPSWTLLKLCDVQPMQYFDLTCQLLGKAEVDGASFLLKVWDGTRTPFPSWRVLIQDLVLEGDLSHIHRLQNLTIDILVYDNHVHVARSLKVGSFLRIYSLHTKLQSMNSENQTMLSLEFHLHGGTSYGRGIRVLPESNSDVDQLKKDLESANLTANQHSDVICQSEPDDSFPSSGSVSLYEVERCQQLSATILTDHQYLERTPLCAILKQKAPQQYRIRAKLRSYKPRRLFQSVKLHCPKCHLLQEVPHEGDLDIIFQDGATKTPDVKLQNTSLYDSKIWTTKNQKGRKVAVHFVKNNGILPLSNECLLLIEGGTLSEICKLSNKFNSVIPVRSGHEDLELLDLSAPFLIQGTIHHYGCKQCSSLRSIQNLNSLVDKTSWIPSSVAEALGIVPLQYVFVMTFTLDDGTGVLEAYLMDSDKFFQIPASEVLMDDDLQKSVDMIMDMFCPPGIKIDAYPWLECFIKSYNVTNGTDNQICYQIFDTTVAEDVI
The description is as above.

Test [3] addresses TRF2 (endogenous) (human (endogenous in HTC75)) (UniProt Q15554). In words: co-IP; lysates of HTC75 cells stably expressing MYC-TRIP6 or MYC-LPP; immunoprecipitation with antibodies to shelterin components, blot probed with 9E10 (anti-MYC).
For test [4], the target named is T2, POT1 (endogenous) (human (endogenous in HTC75)). Described as above.
In test [5] the target is T3, TIN2 (endogenous) (human (endogenous in HTC75)) (UniProt Q9BSI4).
T3 sequence: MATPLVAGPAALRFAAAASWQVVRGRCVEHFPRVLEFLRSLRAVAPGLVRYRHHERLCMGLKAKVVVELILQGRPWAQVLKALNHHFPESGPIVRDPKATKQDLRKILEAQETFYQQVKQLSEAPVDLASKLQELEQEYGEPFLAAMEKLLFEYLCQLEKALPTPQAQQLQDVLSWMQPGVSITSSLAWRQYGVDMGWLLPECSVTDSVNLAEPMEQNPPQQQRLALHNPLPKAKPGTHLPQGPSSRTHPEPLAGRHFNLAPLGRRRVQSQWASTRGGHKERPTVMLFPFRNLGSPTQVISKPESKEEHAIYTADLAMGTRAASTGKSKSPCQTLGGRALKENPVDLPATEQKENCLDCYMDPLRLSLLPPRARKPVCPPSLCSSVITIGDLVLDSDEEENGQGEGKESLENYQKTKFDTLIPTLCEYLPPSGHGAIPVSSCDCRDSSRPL
Described as above.

Test [6] addresses T4, LexA-POT1 (full-length POT1) (human) (UniProt Q9NUX5).
T4 sequence: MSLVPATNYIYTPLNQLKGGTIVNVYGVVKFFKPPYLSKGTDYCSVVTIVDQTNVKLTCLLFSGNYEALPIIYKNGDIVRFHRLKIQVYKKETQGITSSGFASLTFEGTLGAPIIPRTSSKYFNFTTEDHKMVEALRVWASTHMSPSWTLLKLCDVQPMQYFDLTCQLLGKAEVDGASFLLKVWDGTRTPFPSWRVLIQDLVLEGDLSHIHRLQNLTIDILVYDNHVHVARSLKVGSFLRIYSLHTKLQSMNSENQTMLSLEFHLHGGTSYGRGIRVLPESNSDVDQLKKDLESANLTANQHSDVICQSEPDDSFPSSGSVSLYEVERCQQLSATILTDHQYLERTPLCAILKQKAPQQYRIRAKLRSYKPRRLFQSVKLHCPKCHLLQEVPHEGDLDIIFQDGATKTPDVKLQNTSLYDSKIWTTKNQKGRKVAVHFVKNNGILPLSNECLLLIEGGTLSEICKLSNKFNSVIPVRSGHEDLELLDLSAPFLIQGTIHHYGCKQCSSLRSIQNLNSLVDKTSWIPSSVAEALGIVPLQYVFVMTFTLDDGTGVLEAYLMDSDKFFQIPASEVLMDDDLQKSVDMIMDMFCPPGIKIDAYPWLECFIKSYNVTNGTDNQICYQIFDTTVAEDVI
In words: two-hybrid; yeast strain L40, LexA DNA binding domain baits, GAL4 activation domain preys, HIS3 and LacZ reporters (His phenotype, patch LacZ, liquid β-Gal assays).

A further test has as its target LexA-TRF1 (UniProt P54274). The test is described as above.
For test [7], the target named is TRF1 (endogenous) (human (endogenous in HTC75)) (UniProt P54274). In words: co-IP; lysates of HTC75 cells stably expressing MYC-TRIP6 or MYC-LPP; immunoprecipitation with antibodies to shelterin components, blot probed with 9E10 (anti-MYC).
The target of test [8] is T5, FLAG-TRIP6 (full-length TRIP6) (human) (UniProt Q15654).
T5 sequence: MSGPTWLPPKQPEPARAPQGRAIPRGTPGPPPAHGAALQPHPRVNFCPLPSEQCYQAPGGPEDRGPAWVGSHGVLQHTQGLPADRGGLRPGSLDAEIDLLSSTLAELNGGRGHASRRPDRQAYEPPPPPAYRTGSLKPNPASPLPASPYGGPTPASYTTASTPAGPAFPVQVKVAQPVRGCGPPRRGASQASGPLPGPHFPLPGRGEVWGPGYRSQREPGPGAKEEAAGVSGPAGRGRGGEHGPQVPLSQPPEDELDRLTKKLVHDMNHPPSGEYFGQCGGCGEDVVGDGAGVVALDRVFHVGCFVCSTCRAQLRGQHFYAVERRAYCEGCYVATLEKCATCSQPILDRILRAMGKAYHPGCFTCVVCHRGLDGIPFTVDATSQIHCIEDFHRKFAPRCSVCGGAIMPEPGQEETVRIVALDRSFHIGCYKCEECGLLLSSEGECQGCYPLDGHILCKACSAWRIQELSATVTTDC
Put plainly: co-IP; lysates of transiently co-transfected 293T cells; immunoprecipitation with M2 (anti-FLAG) or 9E10 (anti-MYC), blot probed with 9E10.

As for TRF1-GAD (from UniProt P54274 1-439), the binding result with LexA-POT1∆C (human) is given as “no binding”.

B1: MYC-TRIP6 (full-length TRIP6) (protein, UniProt Q15654 1-476)
chain: MSGPTWLPPKQPEPARAPQGRAIPRGTPGPPPAHGAALQPHPRVNFCPLPSEQCYQAPGGPEDRGPAWVGSHGVLQHTQGLPADRGGLRPGSLDAEIDLLSSTLAELNGGRGHASRRPDRQAYEPPPPPAYRTGSLKPNPASPLPASPYGGPTPASYTTASTPAGPAFPVQVKVAQPVRGCGPPRRGASQASGPLPGPHFPLPGRGEVWGPGYRSQREPGPGAKEEAAGVSGPAGRGRGGEHGPQVPLSQPPEDELDRLTKKLVHDMNHPPSGEYFGQCGGCGEDVVGDGAGVVALDRVFHVGCFVCSTCRAQLRGQHFYAVERRAYCEGCYVATLEKCATCSQPILDRILRAMGKAYHPGCFTCVVCHRGLDGIPFTVDATSQIHCIEDFHRKFAPRCSVCGGAIMPEPGQEETVRIVALDRSFHIGCYKCEECGLLLSSEGECQGCYPLDGHILCKACSAWRIQELSATVTTDC
With B1, the binding entry in [1] is “binds”; in [2], “binds weakly”; in [3] it was “binds”; in test [4] it was “binds weakly”; in test [5] it was “binds”.

B2: TRIP6 two-hybrid library clone (three C-terminal LIM domains) fused to the GAL4 activation domain (domain or fragment, UniProt Q15654 218-476)
chain: EPGPGAKEEAAGVSGPAGRGRGGEHGPQVPLSQPPEDELDRLTKKLVHDMNHPPSGEYFGQCGGCGEDVVGDGAGVVALDRVFHVGCFVCSTCRAQLRGQHFYAVERRAYCEGCYVATLEKCATCSQPILDRILRAMGKAYHPGCFTCVVCHRGLDGIPFTVDATSQIHCIEDFHRKFAPRCSVCGGAIMPEPGQEETVRIVALDRSFHIGCYKCEECGLLLSSEGECQGCYPLDGHILCKACSAWRIQELSATVTTDC
With B2, the results for the binding result (in test [6]; in the test with LexA-POT1∆C (human); with LexA-TRF1) were “binds”, “binds” and “no binding”, respectively.

B3: MYC-LPP (full-length LPP) (protein, UniProt Q93052 1-612)
chain: MSHPSWLPPKSTGEPLGHVPARMETTHSFGNPSISVSTQQPPKKFAPVVAPKPKYNPYKQPGGEGDFLPPPPPPLDDSSALPSISGNFPPPPPLDEEAFKVQGNPGGKTLEERRSSLDAEIDSLTSILADLECSSPYKPRPPQSSTGSTASPPVSTPVTGHKRMVIPNQPPLTATKKSTLKPQPAPQAGPIPVAPIGTLKPQPQPVPASYTTASTSSRPTFNVQVKSAQPSPHYMAAPSSGQIYGSGPQGYNTQPVPVSGQCPPPSTRGGMDYAYIPPPGLQPEPGYGYAPNQGRYYEGYYAAGPGYGGRNDSDPTYGQQGHPNTWKREPGYTPPGAGNQNPPGMYPVTGPKKTYITDPVSAPCAPPLQPKGGHSGQLGPSSVAPSFRPEDELEHLTKKMLYDMENPPADEYFGRCARCGENVVGEGTGCTAMDQVFHVDCFTCIICNNKLRGQPFYAVEKKAYCEPCYINTLEQCNVCSKPIMERILRATGKAYHPHCFTCVMCHRSLDGIPFTVDAGGLIHCIEDFHKKFAPRCSVCKEPIMPAPGQEETVRIVALDRDFHVHCYRCEDCGGLLSEGDNQGCYPLDGHILCKTCNSARIRVLTAKASTDL
Regarding B3, the binding result in test [7], in test [3], in test [4] and in test [5] was “binds” throughout.

B4: MYC-POT1 (full-length POT1) (protein, UniProt Q9NUX5 1-634)
chain: MSLVPATNYIYTPLNQLKGGTIVNVYGVVKFFKPPYLSKGTDYCSVVTIVDQTNVKLTCLLFSGNYEALPIIYKNGDIVRFHRLKIQVYKKETQGITSSGFASLTFEGTLGAPIIPRTSSKYFNFTTEDHKMVEALRVWASTHMSPSWTLLKLCDVQPMQYFDLTCQLLGKAEVDGASFLLKVWDGTRTPFPSWRVLIQDLVLEGDLSHIHRLQNLTIDILVYDNHVHVARSLKVGSFLRIYSLHTKLQSMNSENQTMLSLEFHLHGGTSYGRGIRVLPESNSDVDQLKKDLESANLTANQHSDVICQSEPDDSFPSSGSVSLYEVERCQQLSATILTDHQYLERTPLCAILKQKAPQQYRIRAKLRSYKPRRLFQSVKLHCPKCHLLQEVPHEGDLDIIFQDGATKTPDVKLQNTSLYDSKIWTTKNQKGRKVAVHFVKNNGILPLSNECLLLIEGGTLSEICKLSNKFNSVIPVRSGHEDLELLDLSAPFLIQGTIHHYGCKQCSSLRSIQNLNSLVDKTSWIPSSVAEALGIVPLQYVFVMTFTLDDGTGVLEAYLMDSDKFFQIPASEVLMDDDLQKSVDMIMDMFCPPGIKIDAYPWLECFIKSYNVTNGTDNQICYQIFDTTVAEDVI
For the molecule B4, in test [8], the binding result is reported as “binds”.
